± gives the standard deviation of the averaged measurements. Some of the results follow.

In the assay the test system is PfAP2-G AP2 domain (GST-tagged). The assay is described as follows: gcPBM binding intensity (ln(normalized median fluorescence intensity)); higher = stronger DNA binding. The procedure, abridged: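 Binding intensity is defined as the maximum Masliner-normalised natural-log median intensity across replicate spots for either probe orientation. It was measured on an Agilent 4 × 180k array of primer-extended double-stranded 36-bp intergenic genomic probes and negative controls, to which GST-tagged P. falciparum DNA-binding domains made in E. coli were applied for 1 h in 1× PBS with 1% milk, 0.2 mg/ml BSA, 0.5% salmon testes DNA and 0.03% Triton X-100. Detection was by Alexa488 anti-GST antibody and scanning at 488 nm.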
On to TTATGTGCTTTAAAAGTGCATTTTTTTTTTTTTTTT, for which the “gcPBM binding intensity (ln)” value worked out at 10.3 ± 0.28. Next, “TATATGTTTTATAAATGTACATATACTTAAATATTT [XGTACX_site4753]”: 11 ± 0.7; “TTATTTGTATCCATTTCACACATTTTATATAGTATC [CACACA_site5989]”: 10.3 ± 0.19.

Take TTTTTTGTTATGCGGGTGCATATAATAATGTGATGA: the “gcPBM binding intensity (ln)” value stood at 10.3 ± 0.42.

Take “TATAAATAAATGTGTACACACATTAAAATCAAACGT [CACACA_site2340]”: the “gcPBM binding intensity (ln)” value was found to be 11.7 ± 0.96. The result for “AAACATACTTGATGCAGTACACATTATAAGCACATA [XGTACX_site3359]” reads 11.2 ± 0.62; that for “TCCTCGCGTAATACTTTTCAAATAAAAAAAATAAAA [TGCATGCA_negctrl_site403]”, 10.5 ± 0.48; that for “ATTAAAAATTAATATAAACACACAAAAATTAATAAA [CACACA_site8019]”, 9.915 ± 0.035.

In the case of “TTTTTTTTTTTTTATTGTACTAGTAGATATATATAC [XGTACX_site3463]”, the “gcPBM binding intensity (ln)” value is 10.9 ± 0.82. Next, “CCAATATATACATATATATAGTTATATATATTTCCT [TGCATGCA_negctrl_site38]”: 9.69 ± 0.2; “GTGTCAAATTTTATAACACACAAAAGATTATATAAG [CACACA_site4086]”: 10.1 ± 0.092; “GGACTTAAATAAAATGGTACAGAATTTATATATATT [XGTACX_site8214]”: 10.9 ± 0.56.

For the sequence “ATATATGTATATGTGTGTACATATATGTTTATTATT [XGTACX_site6043]”, the “gcPBM binding intensity (ln)” value was found to be 11.3 ± 0.77. On to “TTTTAAAAATTAAAAAAATTAAATGTAAAAAAATGA [CACACA_negctrl_site861]”, for which the “gcPBM binding intensity (ln)” value is 9.9 ± 0.18. The result for “ATTTAACAACTTCAAACACACAATATATATATATAT [CACACA_site2093]” reads 10.3 ± 0.57.

Turning to “AATTCAAATATAAATACACACACATAGCTACAAAAT [CACACA_site9386]”, the “gcPBM binding intensity (ln)” value was 10.035 ± 0.007. Next, “AAATATATATGTGGGGGTACTAATAAAAAAACCCCT [XGTACX_site2657]”: 11.3 ± 0.86; “CATAAATTAATAGTCACACACGTATTTTTTATATAT [CACACA_site2526]”: 10.4 ± 0.11. The result for “TAGGCGTTTAATAAAAGTACCCACACATATATTATT [XGTACX_site1932]” reads 11.1 ± 0.54; that for “TTTATTATCGTTCTCATACACACAAAATATACATAC [CACACA_site2642]”, 10.22 ± 0.071. Next, “GAAAAAAGAAAAAAAAGTACATATATTTAATAAGAC [XGTACX_site6912]”: 11.4 ± 0.86; “TTATCCATAAAAAAGTGTACGCACTAAAATTGAAAA [XGTACX_site5460]”: 11.6 ± 0.99. As for “TATAATTCATATGAAACACACATTTATTTTAATTAC [CACACA_site3686]”, the “gcPBM binding intensity (ln)” value is 10 ± 0.23. Next, “TTACACAAACAAATTATGGACACATAAGTAAAAGGA [CACACA_negctrl_site1622]”: 11 ± 0.49; “TGAAAAAAAAAAAAAAAAAAAAGAAAAAAAAAAAAA [CACACA_negctrl_site709]”: 9.51 ± 0.042. The result for “CATATGTTCATCATAGCACACATATATAAATTACAA [CACACA_site9177]” reads 10.4 ± 0.15. On to “CATATATATTTGTTCACACACACACCCAAAAAAAAA [CACACA_site2476]”, for which the “gcPBM binding intensity (ln)” value is 10.5 ± 0.38. The result for “CACACCCACAGACACACACACACATATATATATATA [CACACA_site363]” reads 10.3 ± 0.26.

“ATATATATATATATTTGTACATATATACATAAAATT [XGTACX_site359]”: the “gcPBM binding intensity (ln)” value was 10.8 ± 0.54. On to “GAAAAAGTTATAAATTGTACTAAATATTAAATATTG [XGTACX_site7890]”, for which the “gcPBM binding intensity (ln)” value was 10.8 ± 0.49.

Consider “TTTAAAATGGGACTTTGAAAAAAAAAAAAAAAAACA [TGCATGCA_negctrl_site111]”, for which the “gcPBM binding intensity (ln)” value is 10.1 ± 0.32. For the sequence “TATAGGTATGTATGTACACACAAAAAATGGAATATA [CACACA_site7704]”, the “gcPBM binding intensity (ln)” value is 11.4 ± 0.76. Next, “TATATATATATATATTGTACATAATGTATATATGTT [XGTACX_site3448]”: 10.9 ± 0.68. “GTTATTTATAGACACACACACATGCATGCACATATA [CACACA_site6204]”: the “gcPBM binding intensity (ln)” value is 10.2 ± 0.15.

As for “AAATAAATAAGAAACGCATGCATATATAATATATAA [TGCATGCA_site326]”, the “gcPBM binding intensity (ln)” value was determined as 9.83 ± 0.057. As to “AAAAAAAAAAAAAGGTGTACATGCAAAATAAATTCT [XGTACX_site4592]”, the “gcPBM binding intensity (ln)” value came to 11.6 ± 0.93.

As for “GAAATAAAAAGAAATGCATGTAATTTTTTTTTTTTT [TGCATGCA_site928]”, the “gcPBM binding intensity (ln)” value is 9.415 ± 0.064. Next, “ATAAGTATAAGAATCAGTACACAGTTTCTACATACT [XGTACX_site5834]”: 11.2 ± 0.76. The result for “GACTTTTCATTTATAGTGCAAGTTTTTTTTTTTTTT [GTGCAC_site9698]” reads 10.1 ± 0.23; that for “ATAAATATAAAAAAATGTACATATAGTAATACATAC [XGTACX_site508]”, 11 ± 0.71; that for “TATATATCATTTAAAACACACAAAAAAAAAAGTTAT [CACACA_site6191]”, 9.97 ± 0.071. The result for “TATTATTGTTGTTCATGTACACACTATAATAAAAGC [XGTACX_site8957]” reads 11.5 ± 0.84; that for “GAGATAAAATAAAACACACACATATATATATATAAT [CACACA_site5246]”, 9.875 ± 0.064. Regarding “AATGACTAAATTTAAACACACAAGGGGAGTTTACTT [CACACA_site918]”, the “gcPBM binding intensity (ln)” value worked out at 9.71 ± 0.15. Next, “ATTAAAACCAATTAAAAAAAATTTATAATGGAAGCA [TGCATGCA_negctrl_site273]”: 9.79 ± 0.18. The result for “AAGTTATAAAAATAAAGTACAAAGTAGCTATTTTTT [XGTACX_site3144]” reads 11.1 ± 0.77; that for “TTGTATTTTTAAATGACACACACATATATATATATA [CACACA_site8481]”, 10.2 ± 0.39; that for “AATAAATAAGCACATACACACATACATACATACATA [CACACA_site6075]”, 10.12 ± 0.092. For “ATATGTAAAGAAAAGTAAACACTAATTTTAAACAAT [CACACA_negctrl_site11]”, the “gcPBM binding intensity (ln)” value came to 9.995 ± 0.007.

On to “TATATATATGTGCAGTGTACTTTTTTTTTCTGTAAG [XGTACX_site3424]”, for which the “gcPBM binding intensity (ln)” value was found to be 11.5 ± 0.92. The result for “TTTTTTTTAATTGTGATACGTATATTATTTTTTGAT [TGCATGCA_negctrl_site318]” reads 10.4 ± 0.39; that for “ATTTTTAATATTATTACACACACTAATAAAAAAAAA [CACACA_site8265]”, 10.1 ± 0.38; that for “GAGAAGACATTACACAGTACCCAGGAAATCTACGGA [XGTACX_site1993]”, 10.6 ± 0.43. “TTATTCAGAAAAAAAAAAAAAAAAAAAAAAAAAAAA [CACACA_negctrl_site1662]”: the “gcPBM binding intensity (ln)” value is 9.6 ± 0.11. Next, “ATATATATATATATATGTACTTAATATTTCTTATTT [XGTACX_site6206]”: 11 ± 0.76; “TCGACAAATGTATATACACACATTTGTAACATAAAT [CACACA_site560]”: 10.03 ± 0.014.

For the origin of these results see the supplement of paper PMC11417369.
